Results reported in the GPR68 mutational scans of Howard et al. (2025).

B1: GPR68, Q15743 (parent)
chain: MGNITADNSSMSCTIDHTIHQTLAPVVYVTVLVVGFPANCLSLYFGYLQIKARNELGVYLCNLTVADLFYICSLPFWLQYVLQHDNWSHGDLSCQVCGILLYENIYISVGFLCCISVDRYLAVAHPFRFHQFRTLKAAVGVSVVIWAKELLTSIYFLMHEEVIEDENQHRVCFEHYPIQAWQRAINYYRFLVGFLFPICLLLASYQGILRAVRRSHGTQKSRKDQIQRLVLSTVVIFLACFLPYHVLLLVRSVWEASCDFAKGVFNAYHFSLLLTSFNCVADPVLYCFVSETTHRDLARLRGACLAFLTCSRTGRAREAYPLGAPEASGKSGAQGEEPELLTKLHPAFQTPNSPGSGGFPTGRLA

How the values were obtained:
[1] = variants of: B1; assay: cAMP reporter score (Enrich2 score, wild type = 0); higher = more signal; HEK293T, FACS bins
[2] = variants of: B1; assay: surface expression score (Enrich2 score, wild type = 0); higher = more signal; HEK293T, FACS bins

| Variant | cAMP reporter score ([1]; pH 5.5) | cAMP reporter score ([1]; pH 6) | cAMP reporter score ([1]; pH 6, modulator: ogerin) | cAMP reporter score ([1]; pH 6.5, modulator: ogerin) | surface expression score [2] |
| --- | --- | --- | --- | --- | --- |
| P243_Y244insG | -1.39 | -1.19 | -1.92 | -1.11 | -2.74 |
| R222G | -0.834 | 0.412 | -0.493 | -1.24 | -0.209 |
| R222D | -0.133 | – | 0.395 | 2.58 | -0.016 |
| R222W | -0.641 | -0.844 | -0.875 | -1.12 | -1.45 |
| R222Q | 0.738 | 3.47 | 1.64 | 4.01 | 1.4 |
| R222H | 0.223 | 1.7 | 0.948 | 3.2 | 0.966 |
| R222L | 0.702 | 1.08 | 1.32 | 1.59 | -0.257 |
| R222T | 0.341 | – | 0.748 | 2.82 | -0.576 |
| R222I | 1.4 | 2.61 | 0.49 | – | – |
| R222M | 1.36 | 2.35 | 1.54 | 0.64 | 0.445 |
| R222Y | 0.947 | -0.541 | 1.3 | 0.665 | -0.288 |
| R222S | 0.929 | 0.082 | 1.78 | 1.96 | 1.43 |
| R222P | -1.39 | -0.088 | -1.72 | -0.686 | 0.144 |
| R222F | 2.39 | -0.431 | 1.04 | – | -0.428 |
| R222N | 0.83 | -0.27 | 0.855 | 0.143 | 1.02 |
| R222E | 0.995 | – | 2.33 | – | 1.41 |
| R222A | 0.854 | – | 1.61 | 2.39 | 0.374 |
| R222_K223insGS | -1.33 | -0.78 | -1.5 | -0.948 | 0.795 |
| Q227_R228insGS | -1.53 | -1.34 | -0.929 | 0.008 | 1.22 |
| F241_L242insGSG | -0.804 | -1.34 | -1.82 | -0.965 | -2.27 |
| R222_K223insGSG | -1.47 | -1.11 | -1.7 | -1.75 | 0.635 |
| D224_Q225insGSG | -1.64 | -1.21 | -1.21 | -1.5 | 0.296 |

| Variant | cAMP reporter score ([1]; pH 5.5) | cAMP reporter score ([1]; pH 6) | cAMP reporter score ([1]; pH 6, modulator: ogerin) | cAMP reporter score ([1]; pH 6.5, modulator: ogerin) | surface expression score [2] |
| --- | --- | --- | --- | --- | --- |
| V235del | -1.27 | – | – | -1.09 | -2.92 |
| L229_V230insG | -1.47 | -0.827 | – | -0.632 | -2.86 |
| S232H | 0.666 | 2.01 | 0.593 | -1.99 | -0.825 |
| S232N | -0.343 | -1.35 | -0.601 | -0.149 | -1.33 |
| S232R | -0.541 | -0.437 | -1.06 | -1.07 | -2.19 |
| S232F | 0.713 | 1.57 | 1.01 | 0.741 | -0.176 |
| S232T | 0.46 | -0.745 | 0.769 | -0.462 | 1.27 |
| S232P | -1.72 | 1.3 | -1.09 | -0.188 | -0.904 |
| S232G | 0.171 | 0.04 | 0.334 | -0.145 | 0.174 |
| S232C | -0.492 | -0.347 | -0.738 | -0.357 | -0.712 |
| S232M | 1.35 | 1.46 | 0.687 | 0.659 | 0.594 |
| S232I | 0.44 | 2.05 | 0.577 | 0.588 | -0.362 |
| S232W | 0.724 | – | 0.803 | 1.15 | -0.028 |
| S232E | -1 | -0.107 | – | -0.724 | -2.57 |
| S232V | 0.281 | – | 0.438 | 0.639 | 1.01 |
| S232L | 0.606 | 1.71 | -0.147 | – | -0.384 |
| S232K | 0.991 | 1.97 | 0.215 | – | – |
| S232A | -0.017 | -1.19 | -0.05 | -0.236 | 0.377 |
| S232Y | 0.748 | 1.33 | 0.449 | 0.59 | -0.437 |
| S232D | -0.374 | – | -2.23 | -1.41 | -2.28 |
| S232Q | -0.482 | – | – | – | -0.409 |
| T233H | -0.383 | 0.188 | -0.779 | -1.58 | – |

| Variant | cAMP reporter score ([1]; pH 5.5) | cAMP reporter score ([1]; pH 6) | cAMP reporter score ([1]; pH 6, modulator: ogerin) | cAMP reporter score ([1]; pH 6.5, modulator: ogerin) | surface expression score [2] |
| --- | --- | --- | --- | --- | --- |
| T233A | -1.82 | -1.14 | – | -1.43 | -0.47 |
| T233G | -0.247 | -0.144 | -1.5 | -1.5 | -0.602 |
| T233N | -0.228 | 0.362 | -0.495 | 0.063 | -1.04 |
| T233L | -0.221 | -0.188 | -0.059 | -0.495 | -0.558 |
| T233W | -1.7 | -0.952 | -0.994 | -1.72 | -2.42 |
| T233P | -1.74 | – | -1.6 | – | -2.86 |
| T233V | -0.866 | -0.366 | -1.68 | -0.666 | 0.023 |
| T233C | -0.693 | 0.183 | -1.88 | – | 1.05 |
| T233S | -0.133 | – | 1.13 | -0.112 | -0.595 |
| T233Y | -0.387 | – | -0.577 | – | -0.289 |
| T233Q | 1.42 | 2.5 | 0.313 | 2.28 | -0.395 |
| T233I | -0.58 | 0.033 | -1.01 | -0.72 | 0.48 |
| T233D | 0.253 | – | -0.703 | -0.485 | – |
| T233F | -0.033 | – | -0.336 | – | -2.34 |
| T233M | -1.41 | -1.2 | -1.23 | -1.77 | -1.12 |
| T233R | -2.08 | -0.78 | -1.26 | -2.74 | -2.46 |
| I236_F237del | -1.26 | -1.57 | -2.07 | -1.46 | -2.27 |
| Q227_R228del | -0.454 | -1.58 | -0.894 | -0.612 | -0.099 |
| Q225_I226insGSG | -1.5 | -1.64 | -2.34 | -1.06 | -0.857 |
| S221_R222insGSG | -1.13 | -1.19 | – | -1.52 | 0.218 |
| R222del | 1.03 | -0.769 | 0.822 | -0.531 | 0.984 |
| V235I | 0.369 | 0.707 | 0.484 | 0.544 | 0.409 |

The least precise scores are not listed. Not listed are two conditions whose scores span a narrow range. Names with del lack the residues named; names with ins carry added residues between the positions named. For some assays here: How much ogerin was present is not stated here.
